# Source: paper PMC4336329 (PLoS ONE, 2015)
# In all, about 310,000 compounds went through this assay and about 14,000 (4.5%) showed an effect of 50% or more. The effect is printed as a negative number. Some of the results follow.
# Biological target: human ether-à-go-go-related gene (hERG) potassium channel (human, UniProt Q12809)
# Experiment: primary screen, population patch clamp on CHO cells stably expressing hERG
# 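Also: peak tail current of the secondary pulse compared with the same well before compound.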
# Chain of human ether-à-go-go-related gene (hERG) potassium channel (Q12809 whole entry, looked up): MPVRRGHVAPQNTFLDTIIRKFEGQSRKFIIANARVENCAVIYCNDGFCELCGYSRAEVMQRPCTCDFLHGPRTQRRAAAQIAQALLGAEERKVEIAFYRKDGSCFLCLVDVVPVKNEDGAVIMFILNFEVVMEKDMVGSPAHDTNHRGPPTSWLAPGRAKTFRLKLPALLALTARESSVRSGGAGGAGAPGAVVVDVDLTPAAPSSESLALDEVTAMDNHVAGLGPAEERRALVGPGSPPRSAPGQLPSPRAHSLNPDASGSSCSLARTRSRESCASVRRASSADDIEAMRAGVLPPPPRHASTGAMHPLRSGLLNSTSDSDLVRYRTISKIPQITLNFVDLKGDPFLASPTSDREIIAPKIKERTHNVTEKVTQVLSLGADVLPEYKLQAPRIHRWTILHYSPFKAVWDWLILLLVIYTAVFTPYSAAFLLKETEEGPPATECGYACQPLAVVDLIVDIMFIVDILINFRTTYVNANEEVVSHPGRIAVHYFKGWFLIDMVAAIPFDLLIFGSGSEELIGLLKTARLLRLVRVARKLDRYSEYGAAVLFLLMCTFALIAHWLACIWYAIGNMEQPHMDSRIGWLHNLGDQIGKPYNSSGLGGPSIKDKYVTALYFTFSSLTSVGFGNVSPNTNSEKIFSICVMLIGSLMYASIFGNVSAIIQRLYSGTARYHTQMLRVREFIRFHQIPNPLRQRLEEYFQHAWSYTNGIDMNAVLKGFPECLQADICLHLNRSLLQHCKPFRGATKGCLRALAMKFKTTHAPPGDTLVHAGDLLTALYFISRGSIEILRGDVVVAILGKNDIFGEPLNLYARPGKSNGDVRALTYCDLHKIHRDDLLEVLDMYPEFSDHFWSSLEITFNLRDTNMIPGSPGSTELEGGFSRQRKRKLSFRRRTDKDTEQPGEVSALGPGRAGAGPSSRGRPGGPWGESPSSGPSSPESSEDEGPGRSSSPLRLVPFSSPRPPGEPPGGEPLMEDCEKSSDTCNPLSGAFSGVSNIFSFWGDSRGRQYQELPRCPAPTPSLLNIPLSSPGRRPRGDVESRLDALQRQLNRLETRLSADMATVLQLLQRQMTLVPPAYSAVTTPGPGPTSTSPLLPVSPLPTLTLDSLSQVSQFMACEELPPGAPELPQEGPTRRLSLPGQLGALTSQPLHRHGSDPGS
row,Compound,"hERG current change (%, negative = inhibition) at 10uM"
1,CN(C)c1ccc(-c2nnc(SCC3CCCO3)n2C)cc1 (stereo not shown),5.24%
2,O=C(O)C1Cc2ccccc2CN1S(=O)(=O)c1ccccc1 (stereo not shown),9.88%
3,Cc1cccc(-n2c(/C=C/c3ccccn3)nc3ccccc3c2=O)c1,15.1%
4,COC(=O)c1ccc2c(=O)n(Cc3ccc4c(c3)OCO4)c(=S)[nH]c2c1,16.3%
5,O=c1cccc2n1CC1CC2CN(C(c2ccccc2)c2sc3ncnn3c2O)C1 (stereo not shown),15.1%
6,N#C/C(C(=O)c1ccccc1)=C1/CCCCCN1,14.1%
7,COc1ccc(-c2nc(CN(C)C(C)c3ccon3)c(C)o2)c(C)c1C (stereo not shown),20.1%
8,O=C(OCc1ccc(C(=O)c2ccccc2)cc1)c1cccc(-c2nnc(-c3ccccc3)o2)c1,-0.909%
9,Cc1oc(-c2ccc(Cl)cc2)nc1CN1CCCC(C(=O)N2CCN(C(=O)c3ccco3)CC2)C1 (stereo not shown),-89.5%
10,CCOC(=O)[C@@H](C)NS(=O)(=O)N(Cc1ccccc1)[C@H](C(=O)OC)C(C)C,-3.86%
11,CC12C(=O)N(c3cccc(OC(=O)c4ccco4)c3)C(=O)C1C1c3ccccc3C2c2ccccc21 (stereo not shown),7.85%
12,CCOC(=O)C1CCN(C(=S)Nc2ccccc2)CC1,13.6%
13,CCc1ccc2[nH]c(=O)c(CN(CCO)C(=O)NCc3ccccc3)cc2c1,3.64%
14,O=C(Nc1cc(Cl)ccc1Cl)C1CC(=O)N(c2ccc(Br)cc2)C1 (stereo not shown),36.4%
15,Cc1cc(C(=O)N/N=C/c2ccc([N+](=O)[O-])s2)c2ccccc2n1,10.2%
16,CCOC(=O)CCCCNC(=O)Nc1ccccc1,38.2%
17,CS(=O)(=O)N(CC(=O)NCc1ccco1)c1ccc2c(c1)OCO2,-11.9%
18,COc1ccc(CC(=O)N[C@@H](CCSC)c2nc3ccccc3[nH]2)cc1,0.782%
19,O=C(CN1CCN(C/C=C/c2ccccc2)CC1)Nc1ccc(F)cc1F,-78.1%
20,CCn1nccc1C(=O)Nc1nc2ccccc2n1CCN1CCCCC1,-39.8%
21,COc1ccc(O)c(CNn2c(-c3ccc(Br)cc3)nc3ccccc3c2=O)c1,-3.24%
22,Cc1cc(OCCn2ccnc2)cc(C)c1Cl,6.52%
23,CC1CCCCN1C(=O)COC(=O)c1ccc2ccccc2n1 (stereo not shown),10%
24,CC(C)N(Cc1nccn1C)C(=O)c1cc(COc2ccc(-n3cncn3)cc2)on1,-51.5%
25,O=C(O)CC/C(=N\NC(=O)CNC(=O)/C=C/c1ccccc1)c1ccccc1,12.1%
26,O=C(Nc1ccccc1)C1=C(O)CC(c2ccoc2)CC1=Nc1ccccc1 (stereo not shown),15%
27,CCCc1cc(C(=O)Nc2cccnc2Cl)no1,11.5%
28,O=c1cc(-c2ccc([N+](=O)[O-])cc2)c2ccc(O)cc2o1,1.63%

row,Compound,"hERG current change (%, negative = inhibition) at 10uM"
1,Cc1cc(NC(=O)c2cccc(S(=O)(=O)N3CCCC3)c2)no1,5.68%
2,CCCCS(=O)(=O)c1sc2nc(C)cc(C)c2c1N,4.78%
3,O=C(Nc1nc(-c2ccccc2)cs1)Nc1ccc(F)cc1F,11.7%
4,COc1ccc(C(=O)NC(=S)NCc2cccnc2)cc1Br,-23.9%
5,Cc1ccc(NNC(=O)c2ccno2)c(C)c1,11.1%
6,COC(=O)C(Cc1ccc(O)cc1)NC(=O)c1ccc2c(c1)OCCO2 (stereo not shown),21.4%
7,CC(=O)N1N=C(c2cccc([N+](=O)[O-])c2)OC1(C)c1cccs1 (stereo not shown),-36.5%
8,Cc1ccc(N(C(=O)CCC(=O)Nc2cc(C)on2)C(C(=O)NC2CCCC2)c2cccs2)cc1 (stereo not shown),-37.7%
9,Cc1c(NC(=O)Nc2cccs2)cccc1[N+](=O)[O-],22.4%
10,Cc1cc(C)cc(NC(=O)Cn2cc3c(n2)CCCCC3)c1,-6.38%
11,CCS(=O)(=O)N1Cc2ccccc2CC1C(=O)Nc1nnc(SCc2c(Cl)cccc2Cl)s1 (stereo not shown),18.7%
12,COc1cc(/C=C2/C(=N)N3N=C(CC(=O)N4CCOCC4)SC3=NC2=O)ccc1OCc1ccc(F)cc1,16.1%
13,O=C1CCC(=O)N1c1cccc(OS(=O)(=O)c2ccccc2)c1,1.19%
14,CCOC(=O)C1CCN(C(=O)COc2cccc3ccccc23)CC1,-2.75%
15,O=C(Cc1cccc(C(F)(F)F)c1)NCC(c1ccco1)N1CCCCC1 (stereo not shown),5.38%
16,c1ccc(OCc2nc3ccccc3[nH]2)cc1,6.4%
17,NNC(=O)CN1C(=O)Nc2ccc(Cl)cc2C1c1ccccc1 (stereo not shown),9.01%
18,CCOC(=O)CS(=O)(=O)c1nc(-c2ccc(F)cc2)cc(C(F)(F)F)n1,-21.3%
19,COc1ccc(NC(=O)c2ccccc2-c2ccc(C(F)(F)F)cc2)cc1S(=O)(=O)N1CCOCC1,-9.7%
20,Nc1ccc2nc(-c3cccc(-c4nc5ccc(N)cc5[nH]4)n3)[nH]c2c1,12.7%
21,CC(C)(O)C#Cc1ccc(CN2CCN(Cc3ccsc3)C(CCO)C2)s1 (stereo not shown),-11.1%
22,CCOC(=O)N1CCN(CC(=O)c2ccc3c(c2)CCN3)CC1,-8.69%
23,S=c1[nH]nc(-c2ccccn2)n1/N=C/c1cccc2ccccc12,11%
24,O=C(NCc1ccccc1Cl)C1CCN(C(=O)c2sccc2-n2cccc2)CC1,4.44%
25,Cc1ccccc1C1NC(c2ccccc2C)C([N+](=O)[O-])C(C)(C)C1[N+](=O)[O-] (stereo not shown),3.18%
26,O=C(N/N=C/c1ccc(Br)cc1)c1ccc(F)cc1,0.487%
27,Cc1cccc2nc(CSc3nnc(N)s3)cn12,-9.23%
